Data from PubChem BioAssay AID248 (DTP/NCI, 2004).
Toxic doses and inconclusive results are not listed. For part of its entries the source gives two or more results. The other results are left out here. An entry can have further records. The records of an entry repeat one measurement across runs, samples, wells, individuals or studies.

Tested on: L1210 leukemia ip in BDF1 mice, survival T/C
Assay: NCI In Vivo Anticancer Drug Screen. Data for tumor model L1210 Leukemia (intraperitoneal) in B6D2F1 (BDF1) mice
Conditions: endpoint: mean survival time, higher = longer survival

O=C(Nc1ccc(NC2=NCCN2)cc1)c1ccc(C(=O)Nc2ccc(NC3=NCCN3)cc2)cc1
T/C (dose: 4.0 mg/kg/injection, schedule: Q07DX Z (ip), vehicle: saline): 111 % of control and 159 % of control

O=NN(CCCl)C(=O)NC1CCSc2ccccc21 (stereo not drawn)
T/C (dose: 90.0 mg/kg/injection, schedule: Q01DX001 (ip), vehicle: other): 91 % of control and 282 % of control

Nc1nc(=S)c2[nH]c(N=Nc3ccc(S(=O)(=O)Nc4ncccn4)cc3)nc2[nH]1
T/C (dose: 100.0 mg/kg/injection, schedule: Q04DX003 (ip), vehicle: Klucel (hydroxypropylcellulose) (HPC)): 108 % of control and 173 % of control | T/C (dose: 400.0 mg/kg/injection, schedule: Q04DX003 (ip), vehicle: Klucel (hydroxypropylcellulose) (HPC)): 105 % of control and 151 % of control

O=c1cc(CO)[nH]cc1O
T/C (dose: 263.0 mg/kg/injection, schedule: Q01DX Z (ip), vehicle: saline): 112 % of control and 150 % of control | T/C (dose: 400.0 mg/kg/injection, schedule: Q01DX009 (ip), vehicle: saline): 116 % of control and 153 % of control

C1CN1c1nc(N2CC2)nc(N2CC2)n1
T/C (dose: 0.13 mg/kg/injection, schedule: Q01DX010 (ip), vehicle: saline): 101 % of control, 105 % of control, 168 % of control | T/C (dose: 0.38 mg/kg/injection, schedule: Q01DX001 (ip), vehicle: saline): 105 % of control and 163 % of control

O=C1N[C@@H]([C@H]2CC[C@H](Cl)CN2)C(=O)N[C@H]1[C@H]1CC[C@H](Cl)CN1
T/C (dose: 2.7 mg/kg/injection, schedule: Q01DX009 (ip), vehicle: saline): 97 % of control and 342 % of control

O=C(O)C(CSC(c1ccccc1)(c1ccccc1)c1ccccc1)N=Cc1cccs1 (stereo not drawn)
T/C (dose: 100.0 mg/kg/injection, schedule: Q01DX009 (ip), vehicle: saline): 106 % of control and 164 % of control

CN=C(N)c1ccc(NC(=O)c2ccc(C(=O)Nc3ccc(C(N)=NC)cc3)cc2)cc1
T/C (dose: 7.5 mg/kg/injection, schedule: Q01DX Z (ip), vehicle: methylcellulose (MC)): 114 % of control and 174 % of control

Cc1c(CNc2ccc(C(=O)NC(CC(=O)O)C(=O)O)cc2)ccc2nc(N)nc(N)c12 (stereo not drawn)
T/C (dose: 0.03 mg/kg/injection, schedule: Q01DX009 (ip), vehicle: other): 114 % of control and 152 % of control

CCN(CC)P(=O)(N1CC1C)N1CC1C (stereo not drawn)
T/C (dose: 50.0 mg/kg/injection, schedule: Q01DX009 (ip), vehicle: saline): 103 % of control and 155 % of control
